{"source": "paper PMC4336329", "about": "(PLoS ONE, 2015)", "note": "Screen size: about 310,000 compounds; about 14,000 (4.5%) showed an effect of 50% or more. Effects have a minus sign here. This is one part of the list.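 Further: peak tail current of the secondary pulse compared with the same well before compound.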", "data": [{"target": "human ether-à-go-go-related gene (hERG) potassium channel (human, UniProt Q12809)", "sequence (Q12809 whole entry, looked up)": "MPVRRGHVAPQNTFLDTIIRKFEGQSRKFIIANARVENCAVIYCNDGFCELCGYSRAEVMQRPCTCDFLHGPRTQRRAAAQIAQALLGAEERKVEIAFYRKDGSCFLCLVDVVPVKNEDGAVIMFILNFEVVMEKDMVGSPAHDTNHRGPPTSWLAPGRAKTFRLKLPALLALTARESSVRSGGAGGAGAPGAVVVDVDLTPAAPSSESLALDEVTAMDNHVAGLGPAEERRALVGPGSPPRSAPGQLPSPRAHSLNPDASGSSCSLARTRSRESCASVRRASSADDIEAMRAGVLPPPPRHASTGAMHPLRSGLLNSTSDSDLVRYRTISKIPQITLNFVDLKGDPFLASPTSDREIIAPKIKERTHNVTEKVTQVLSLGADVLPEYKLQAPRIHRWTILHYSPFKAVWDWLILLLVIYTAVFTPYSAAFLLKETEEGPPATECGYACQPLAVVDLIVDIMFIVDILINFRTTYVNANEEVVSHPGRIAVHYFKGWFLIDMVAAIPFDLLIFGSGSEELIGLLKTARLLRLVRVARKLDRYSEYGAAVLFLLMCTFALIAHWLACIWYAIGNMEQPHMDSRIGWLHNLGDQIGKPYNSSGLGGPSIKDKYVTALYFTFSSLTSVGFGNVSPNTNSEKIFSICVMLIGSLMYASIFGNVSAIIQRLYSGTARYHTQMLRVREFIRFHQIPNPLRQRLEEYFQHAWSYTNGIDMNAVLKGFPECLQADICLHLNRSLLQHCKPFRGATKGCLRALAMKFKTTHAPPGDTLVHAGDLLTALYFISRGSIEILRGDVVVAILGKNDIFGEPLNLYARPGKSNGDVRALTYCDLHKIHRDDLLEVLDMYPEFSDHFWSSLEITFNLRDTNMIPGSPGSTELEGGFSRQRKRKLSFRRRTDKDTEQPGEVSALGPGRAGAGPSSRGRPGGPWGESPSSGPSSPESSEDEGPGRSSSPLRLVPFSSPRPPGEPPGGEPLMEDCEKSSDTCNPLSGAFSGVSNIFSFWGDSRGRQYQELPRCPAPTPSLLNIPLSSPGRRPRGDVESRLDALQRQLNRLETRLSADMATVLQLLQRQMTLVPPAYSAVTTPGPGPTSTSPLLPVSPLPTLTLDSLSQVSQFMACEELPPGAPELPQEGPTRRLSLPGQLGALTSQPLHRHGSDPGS", "assay": "primary screen, population patch clamp on CHO cells stably expressing hERG", "units": {"hERG current change (%, negative = inhibition) at 10uM": "%"}, "values": [{"smiles": "Cc1cc(N2C(=O)C3CCC(c4ccccc4)CC3C2=O)no1", "note": "(stereo not shown)", "hERG current change (%, negative = inhibition) at 10uM": 14.9}, {"smiles": "CC(=O)c1cccc(NC(=O)NCCc2ccc(Cl)cc2)c1", "hERG current change (%, negative = inhibition) at 10uM": 7.64}, {"smiles": "Cc1[nH]c2ccccc2c1C(=O)CSc1n[nH]c(N)n1", "hERG current change (%, negative = inhibition) at 10uM": -0.488}, {"smiles": "O=c1cc(N2CCOCC2)[nH]c(=O)n1C1CCCCC1", "hERG current change (%, negative = inhibition) at 10uM": 9.61}, {"smiles": "CCC(C)C(=O)Nc1ccc([N+](=O)[O-])cc1OC", "note": "(stereo not shown)", "hERG current change (%, negative = inhibition) at 10uM": 4.15}, {"smiles": "O=C(CSc1ncnc2c1cnn2-c1ccccc1)Nc1ccc2c(c1)OCO2", "hERG current change (%, negative = inhibition) at 10uM": 20.3}, {"smiles": "CN(C)CCNc1ncnc2c1cnn2-c1ccc(Cl)cc1", "hERG current change (%, negative = inhibition) at 10uM": -46.2}, {"smiles": "Cn1c(C(=O)NCCc2ccccc2)cc(=O)n(C)c1=O", "hERG current change (%, negative = inhibition) at 10uM": -5.02}, {"smiles": "CN1C(=O)Cc2cc(S(=O)(=O)NCCc3ccc(Cl)cc3)ccc21", "hERG current change (%, negative = inhibition) at 10uM": -45.8}, {"smiles": "Cc1ccc(-c2cc(C(=O)N3CCCC3)c3ccccc3n2)s1", "hERG current change (%, negative = inhibition) at 10uM": 0.887}, {"smiles": "CCCCSc1nc(C)c(CC(=O)O)c(=O)[nH]1", "hERG current change (%, negative = inhibition) at 10uM": 8.77}, {"smiles": "COc1ccc(C(=O)OCC(=O)c2ccc(Cl)s2)c(OC)c1OC", "hERG current change (%, negative = inhibition) at 10uM": -7.61}, {"smiles": "Cc1ccc2c(c1)CCCN2C(=O)C1CCCO1", "note": "(stereo not shown)", "hERG current change (%, negative = inhibition) at 10uM": 13.4}, {"smiles": "Cc1cc(C(=O)NC(C)C2CCCO2)cs1", "note": "(stereo not shown)", "hERG current change (%, negative = inhibition) at 10uM": -2.99}, {"smiles": "CCc1ccc(C(=O)Nc2ccc3nc(C)ccc3c2)cc1", "hERG current change (%, negative = inhibition) at 10uM": 3.89}, {"smiles": "COc1ccc(NC(=O)N2CCN(S(=O)(=O)c3ccc(F)cc3)CC2)c(OC)c1", "hERG current change (%, negative = inhibition) at 10uM": -6.4}, {"smiles": "CC(C)Sc1nc2ccccc2n2cnnc12", "hERG current change (%, negative = inhibition) at 10uM": -6.25}, {"smiles": "Cc1[nH]nc(SCC(=O)N2CCOCC2)c1[N+](=O)[O-]", "hERG current change (%, negative = inhibition) at 10uM": 10.2}, {"smiles": "CN(CCS(=O)(=O)c1ccc(Cl)cc1)Cc1cccnc1", "hERG current change (%, negative = inhibition) at 10uM": 7.63}, {"smiles": "CC1CCCCC12NC(=O)N(CC(=O)Nc1ccc(S(=O)(=O)N3CCOCC3)cc1)C2=O", "note": "(stereo not shown)", "hERG current change (%, negative = inhibition) at 10uM": -11.5}, {"smiles": "COc1ccccc1NS(=O)(=O)c1cc(NC(=O)CNC(=O)c2ccccc2)ccc1C", "hERG current change (%, negative = inhibition) at 10uM": 8.27}, {"smiles": "Cc1noc(C)c1CSc1nc2ccccc2n1CCc1ccccc1", "hERG current change (%, negative = inhibition) at 10uM": -36.8}, {"smiles": "O=C(Cc1cc(=O)[nH][nH]1)N/N=C/c1cccc(Cl)c1Cl", "hERG current change (%, negative = inhibition) at 10uM": 12.1}, {"smiles": "COc1ccc2oc(=Nc3ccccc3)c(-c3nc4ccccc4[nH]3)cc2c1", "hERG current change (%, negative = inhibition) at 10uM": 11.8}, {"smiles": "CCN(c1ccccc1)S(=O)(=O)c1ccc2[nH]c(=O)c(=O)[nH]c2c1", "hERG current change (%, negative = inhibition) at 10uM": -1.66}, {"smiles": "c1ccc2sc(SCc3ccc(-c4nnco4)cc3)nc2c1", "hERG current change (%, negative = inhibition) at 10uM": -4.77}, {"smiles": "CC(Sc1nnc(C2CC2)n1C1CC1)C(=O)N(C)Cc1cccc(F)c1", "note": "(stereo not shown)", "hERG current change (%, negative = inhibition) at 10uM": -2.58}, {"smiles": "Cc1cc(N=Cc2c(O)ccc3ccccc23)no1", "hERG current change (%, negative = inhibition) at 10uM": -5.66}, {"smiles": "NS(=O)(=O)c1ccc(N/N=C/c2ccncc2)cc1", "hERG current change (%, negative = inhibition) at 10uM": 28}, {"smiles": "C=CCNC(=O)C1CC(=O)N(c2ccc(Br)cc2)C1", "note": "(stereo not shown)", "hERG current change (%, negative = inhibition) at 10uM": -7.08}, {"smiles": "COc1ccccc1N1CCN(C(=O)Cn2c(=O)oc3cc(S(=O)(=O)N4CCCC4)ccc32)CC1", "hERG current change (%, negative = inhibition) at 10uM": -13.7}, {"smiles": "CN(C)S(=O)(=O)c1cc(NC(=O)CSc2ncc(C(F)(F)F)cc2Cl)ccc1Cl", "hERG current change (%, negative = inhibition) at 10uM": -3.48}, {"smiles": "COc1ccc(OC)c(S(=O)(=O)Nc2ccc(C(N)=O)cc2)c1", "hERG current change (%, negative = inhibition) at 10uM": 1.45}, {"smiles": "O=C1OCCC1Sc1nnc(-c2ccco2)o1", "note": "(stereo not shown)", "hERG current change (%, negative = inhibition) at 10uM": 9.37}, {"smiles": "CCC(=O)Nc1ccc2c(c1)Cc1cc(NC(=O)CC)ccc1-2", "hERG current change (%, negative = inhibition) at 10uM": 11}, {"smiles": "O=C(CCNS(=O)(=O)c1ccc(Br)s1)NCc1ccccc1", "hERG current change (%, negative = inhibition) at 10uM": -1.63}, {"smiles": "COc1ccnc(Oc2ccccc2)c1C(=O)N/C=N/OCc1ccc(F)cc1Cl", "hERG current change (%, negative = inhibition) at 10uM": -4.95}, {"smiles": "OC1CCCN(Cc2nc(Cc3ccccc3Cl)no2)C1", "note": "(stereo not shown)", "hERG current change (%, negative = inhibition) at 10uM": 9.94}, {"smiles": "Cc1cc(C(=O)CSc2ncn[nH]2)c(C)n1-c1cccc(S(=O)(=O)N2CCOCC2)c1", "hERG current change (%, negative = inhibition) at 10uM": -28.5}, {"smiles": "COc1ccc(NC(=O)C2CC2)cc1OC1CCCC1", "hERG current change (%, negative = inhibition) at 10uM": 3.26}, {"smiles": "CCCN(C(=O)c1cccs1)c1nnc(-c2ccncc2)s1", "hERG current change (%, negative = inhibition) at 10uM": -16.8}, {"smiles": "CCC(=O)NCCSc1c[nH]c2ccccc12", "hERG current change (%, negative = inhibition) at 10uM": -12.2}, {"smiles": "COC(=O)[C@@H](NC(=O)N1CCC(C)CC1)C(C)C", "hERG current change (%, negative = inhibition) at 10uM": 0.634}, {"smiles": "N#Cc1c(NC(=O)Cn2cnc3ccccc3c2=O)oc(-c2ccccc2)c1-c1ccccc1", "hERG current change (%, negative = inhibition) at 10uM": 5.21}, {"smiles": "COc1ccc(C(=O)N=c2sc3ccccc3n2C)cc1OC", "hERG current change (%, negative = inhibition) at 10uM": 12.4}, {"smiles": "CCOC(=O)C1C(=O)C(C(C)=O)C(=O)CC1CC(C)SCC", "note": "(stereo not shown)", "hERG current change (%, negative = inhibition) at 10uM": 0.222}, {"smiles": "CCc1nnc(NC(=O)C2CC(=O)N(C3CCCC3)C2)s1", "note": "(stereo not shown)", "hERG current change (%, negative = inhibition) at 10uM": 14.3}, {"smiles": "COc1ccc2c(c1)C(C)=CC(C)(C)N2S(=O)(=O)c1ccc(NC(C)=O)cc1", "hERG current change (%, negative = inhibition) at 10uM": -1.74}, {"smiles": "O=C(N/C(=C/C=C/c1ccccc1)C(=O)N1CCCCC1)c1ccc([N+](=O)[O-])cc1", "hERG current change (%, negative = inhibition) at 10uM": -72.8}, {"smiles": "CCNC(=O)/C(C#N)=C/c1c(N2CCCCCC2)nc2ccccn2c1=O", "hERG current change (%, negative = inhibition) at 10uM": -9.13}, {"smiles": "COc1ccc(O)c(/C=N/Nc2nc(Nc3ccccc3)nc(-n3nc(C)cc3C)n2)c1", "hERG current change (%, negative = inhibition) at 10uM": 0.0873}, {"smiles": "CCOC(=O)c1c(NC(=O)CSc2nnc(-c3ccc(Cl)cc3)o2)sc2c1CCC2", "hERG current change (%, negative = inhibition) at 10uM": -0.885}, {"smiles": "O=C(Nc1ccn(Cc2ccccc2)n1)c1n[nH]c([N+](=O)[O-])c1Cl", "hERG current change (%, negative = inhibition) at 10uM": -10.6}, {"smiles": "CCc1nnc(NC(=O)CS(=O)(=O)c2ccccc2)s1", "hERG current change (%, negative = inhibition) at 10uM": 1.86}, {"smiles": "Cc1cc(C)c[n+](CC(=O)c2ccccc2)c1.[Br-]", "hERG current change (%, negative = inhibition) at 10uM": 22.8}, {"smiles": "O=C(C[n+]1ccc(Cc2ccccc2)cc1)Nc1ccc([N+](=O)[O-])cc1Cl.[Cl-]", "hERG current change (%, negative = inhibition) at 10uM": -24.8}, {"smiles": "O=C(c1ccc(F)cc1)C1CCN(Cc2cn[nH]c2-c2ccccc2)CC1", "hERG current change (%, negative = inhibition) at 10uM": -78.8}, {"smiles": "COc1ccc(CC(=O)Oc2ccc(F)c(F)c2)cc1S(=O)(=O)N1CCOCC1", "hERG current change (%, negative = inhibition) at 10uM": -43.8}]}]}
